The whole screen tested about 330,000 compounds, of which about 560 (0.17%) were called active. This list was built around the results that the source calls inconclusive (neither active nor inactive); the mix of calls is not that of the screen. Calls come from the whole dose curve; as a rule, active = well fitted inhibition curve with a large enough effect; inconclusive = small, poorly fitted or top-dose-only effect, or effect the other way; inactive = flat fitted curve, though single readings scatter. Potencies of inconclusive entries are left out as doubtful fits.
The molecules below were run against ATP-dependent 6-phosphofructokinase (Trypanosoma brucei brucei) (UniProt O15648) (assay: qHTS Assay to Find Inhibitors of T. brucei phosphofructokinase). Details: T. brucei PFK, ADP-Glo luminescence; activity, negative = inhibition: at 57.5 µM (top of the series).
Chain of UniProt O15648 (O15648 whole entry, looked up): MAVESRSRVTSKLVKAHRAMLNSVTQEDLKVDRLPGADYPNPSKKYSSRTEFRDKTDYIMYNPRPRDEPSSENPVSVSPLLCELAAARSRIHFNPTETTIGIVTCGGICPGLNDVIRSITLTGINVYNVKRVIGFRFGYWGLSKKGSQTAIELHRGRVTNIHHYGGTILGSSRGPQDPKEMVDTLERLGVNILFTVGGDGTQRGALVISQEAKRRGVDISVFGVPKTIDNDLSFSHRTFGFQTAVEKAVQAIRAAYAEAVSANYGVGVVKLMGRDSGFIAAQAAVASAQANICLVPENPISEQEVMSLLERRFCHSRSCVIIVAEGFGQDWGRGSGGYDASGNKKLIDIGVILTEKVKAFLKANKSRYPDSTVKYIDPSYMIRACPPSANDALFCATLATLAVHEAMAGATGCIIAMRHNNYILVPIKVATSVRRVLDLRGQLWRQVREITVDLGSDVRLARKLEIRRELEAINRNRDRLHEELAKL
Excerpt: NIH Molecular Libraries Probe Production Network [MLPCN] NIH Chemical Genomics Center [NCGC] Grant: 1 R03 MH092153-01 PI Name: Malcolm Walkinshaw, University of Edinburgh NCGC Assay Overview: Various species of the protozoan family Trypanosomatidae are responsible for a range of serious human diseases in tropical and subtropical areas of the world. […] Many of the disorders caused by trypanosomatids are fatal if left untreated, but most currently used drugs are inefficient and toxic. […] Oxidative metabolism involving the mitochondrial tricarboxylic acid cycle and oxidative phosphorylation are repressed in these parasites, and recent RNA interference (RNAi) experiments have shown that even partial depletion of certain individual glycolytic enzymes can lead to the death of cultured parasites. One such glycolytic enzyme, phosphofructokinase (PFK), catalyzes the formation of fructose-1,6-bisphosphate (F1,6BP) and ADP from fructose-6-phosphate (F6P) and ATP, and in many metabolic circumstances makes an important contribution to the control of flux through the glycolytic pathway. As a specific glycolytic target, PFK is particularly attractive as it catalyzes the first irreversible step in glycolysis, and structural and kinetic studies have shown very substantial and essential differences from corresponding host enzymes, allowing for the discovery of parasite-selective inhibitors. The goal of this screen is to find small-molecule inhibitors of T. brucei PFK using a biochemical assay that measures PFK activity as a function of ADP production. A luminescence-based assay for T. brucei PFK activity has been developed which uses luciferase to detect production of ADP. Traditional luciferase-based nucleotide detection reagents rely on ATP production as a direct substrate for the luciferase reaction; however, PFK catalyzes the transfer of a phosphate from ATP to F6P, resulting in the net depletion of ATP. To directly measure the ADP product of the PFK reaction, we used the ADP-Glo detection kit (Promega), which utilizes two separate reactions to 1) deplete all remaining uncatalyzed ATP and 2) convert all remaining ADP to ATP, which is then detected through a traditional luciferase-coupled reaction. Compounds were screened as a concentration-titration series that ranged from 57 uM to 0.7 nM.
NCGC Assay Protocol Summary: NCGC Assay Protocol Summary: Substrate buffer was dispensed into white, solid 1536-well plates at 3uL/well in 0.1M triethanolamine (TEA) buffer, pH 8.0, containing final concentrations of 5 mM MgCl2, 0.01% Tween20, 0.5 mM fructose-6-phosphate (F6P) and 0.1mM ATP. Then, 23 nL of compounds or DMSO were delivered to each well using a pin tool. One uL T. brucei PFK (0.1M TEA, 0.01% Tween20, 0.1% bovine serum albumin (BSA) and 1.25nM PFK, final concentrations) was then dispensed, and plates were incubated at room temperature for 45 min. The luminescent detection reagent, ADP-Glo (Promega), was then added in two steps: the first reagent, ADP-Glo (which converts remaining uncatalyzed ATP), was added at 2.5uL/well and incubated for ten minutes at room temperature, and the second component, Kinase Detection reagent (which converts ADP to ATP as a substrate for luciferase-based luminescence), was added immediately after at 5uL/well, followed by one final ten minute room temperature incubation. The plates were measured on a ViewLux plate reader for luminescent signal using a clear filter with a one second exposure. The %Activity was determined from the corrected luminescence values. As no specific T. brucei PFK inhibitors have been identified in the literature, 1x (1.25nM) and 0x PFK enzyme controls (untreated) were included to normalize %Activity of identified inhibitors; 0x enzyme values corresponded to 100%Activity (full inhibition), while 1x PFK enzyme values were used to normalize 0%Activity (no inhibition). Concentration-response curves were fitted to the signals arising from the resulting luminescence. […]
In the case of `O=C(C1CCC1)N1CCN(S(=O)(=O)c2ccc(F)cc2)CC1`, the Potency is reported as inconclusive [falling, single point].
`Cc1cc(NS(=O)(=O)c2ccc(NC(=O)Cc3ccc(Cl)c(Cl)c3)cc2)no1` was tested, and the Potency was active: 1.2 µM.
`COc1ccccc1/C=C1\SC(=S)N(NS(=O)(=O)c2ccccc2)C1=O` was tested, and the Potency was inconclusive [activator, partial curve].
`Cc1ccc2sc(C)[n+](CCC(C)S(=O)(=O)[O-])c2c1` (configuration not stated) was tested, and the Potency was inconclusive [activator, partial curve].
With `Cc1ccc(S(=O)(=O)NNC(=O)c2csnn2)cc1` the Potency was inconclusive [falling, single point].
In the case of `CCN(CC(=O)Nc1ccccc1C(F)(F)F)C(=O)CSCc1c(C)noc1C`, the Potency is reported as inconclusive [falling, single point].
With `O=C(O)c1ccc(NS(=O)(=O)c2ccc3c(c2)C2C=CCC2C(c2ccccc2F)N3)cc1` (configuration not stated) the Potency was inconclusive [falling, single point].
In the case of `CCn1c(SCC(=O)Nc2ccc3c(c2)OCO3)nc2c(c1=O)SC(C)C2` (configuration not stated), the “activity, negative = inhibition” value is reported as inactive: -0.223%.
With `Cc1c(Br)c(=O)oc2c(Br)c(O)c(O)cc12` the Potency was inconclusive [falling, single point].
`CCNc1nc(NCC)n2c(SCC(=O)Nc3c(C)cccc3C)nnc2n1` was tested, and the Potency was inconclusive [falling, single point].
With `COc1ccc(NC(=S)Nc2ncccc2C)c(OC)c1` the Potency was inconclusive [falling, single point].
In the case of `CC/C(=N/Nc1cccc(Cl)c1)c1cnnc(SC)n1`, the Potency is reported as inconclusive [falling, partial curve].
For `Cc1cc(C)n(-c2nc(NCC3CCCO3)c3c4c(sc3n2)COC(C)(C)C4)n1` (configuration not stated), the “activity, negative = inhibition” value was inactive: -1.39%.
With `Cc1cccc(C)c1NC(=O)C(NC(=O)c1ccccn1)c1ccccc1[N+](=O)[O-]` (configuration not stated) the Potency was inconclusive [falling, single point].
For `S=c1[nH]c(-c2ccccc2)cn1/N=C/c1ccncc1`, the Potency was inconclusive [falling, partial curve].
For `COc1ccc(CCN=C(N)NS(=O)(=O)c2cc(F)ccc2F)cc1`, the Potency was inconclusive [falling, single point].
In the case of `CC(C)(C)NC(=O)NC(=O)CN1CCN(c2ncc(C(F)(F)F)cc2Cl)CC1`, the “activity, negative = inhibition” value is reported as inactive: 2.66%.
With `O=C1CC(N2CCCCCC2)C(=O)N1c1ccc(F)cc1` (configuration not stated) the Potency was inconclusive [activator, single point].
`O=C(Nc1ccc(Cl)cc1)Nc1ccc(S(=O)(=O)Nc2ncccn2)cc1` was tested, and the Potency was active: 15.1 µM.
With `Cc1c(C)c(C)c2[nH]c(=S)[nH]c2c1C` the “activity, negative = inhibition” value was inactive: 4.32%.
For `Cc1ccc(NC(=O)c2cnccn2)cc1S(=O)(=O)N1CCCCCC1`, the Potency was inconclusive [falling, single point].
With `O=C(CCSc1ccccc1Cl)NNC(=O)c1ccncc1` the Potency was inconclusive [activator, single point].
`Cc1cc(CN2CCN(CCC#N)CC2)c(O)c(C2(C)CCCCC2)c1` was tested, and the “activity, negative = inhibition” value was inactive: -0.155%.
For `O=C(Nc1ccc(N2CCCCC2)cc1)C(Cl)c1ccccc1` (configuration not stated), the Potency was inconclusive [falling, partial curve, poor fit].
For `Cc1[nH]c(=O)[nH]c(=O)c1S(=O)(=O)N1CCC(C(=O)N2CCN(Cc3ccccc3)CC2)CC1`, the “activity, negative = inhibition” value was inactive: -4.32%.
`Cc1cc(OCc2cc(C(=O)NCCN3CCCCC3CO)no2)cc(C)c1Cl` (configuration not stated) was tested, and the Potency was inconclusive [falling, single point].
For `Cc1ccc(C)c(-n2cc(CNCCCn3cccn3)c(-c3ccccc3)n2)c1`, the “activity, negative = inhibition” value was inactive: 0.691%.
In the case of `Cc1nc(C(F)(F)F)c(C(=O)N/N=C(\N)c2ccccn2)s1`, the “activity, negative = inhibition” value is reported as inactive: 2.85%.
With `CCOC(=O)Cn1c(=N)n(CCOc2ccc(F)cc2)c2ccccc21` the Potency was active: 5.36 µM.
`Cc1cc(C)n2c(SCC(=O)N(C)C3CCS(=O)(=O)C3)nnc2n1` (configuration not stated) was tested, and the Potency was inconclusive [falling, single point].
With `Clc1nssc1=Nc1ccccc1` the Potency was inconclusive [falling, single point].
With `COc1ccc(NC(=O)CNC(=O)c2nn(-c3ccc(OC)cc3OC)c(=O)c3ccccc23)c(OC)c1` the “activity, negative = inhibition” value was inactive: 0.0571%.
With `Cc1ccc2[nH]c(=O)c3cc(C(=O)N4CCN(C(=O)c5ccco5)CC4)sc3c2c1` the “activity, negative = inhibition” value was inactive: -21.7%.
`C#CCOCCOCCOCCNc1nc(N2CCN(C(=O)CCCCCCCCCCNC(=O)[C@@H](CCSC)n3cc(CCO)nn3)CC2)nc(N2CCN(C(=O)CCCCCCCCCCNC(=O)[C@H](CCCN=C(N)N)n3cc(C[C@@H](C)CC)nn3)CC2)n1` was tested, and the Potency was inconclusive [activator, single point].
With `COc1ccc(NS(=O)(=O)c2cc(NC(=O)COc3ccccc3)ccc2N2CCOCC2)cc1` the “activity, negative = inhibition” value was inactive: 0.267%.
With `CCn1c(SC(C)C(=O)O)nc2sc3c(c2c1=O)CCC3` (configuration not stated) the Potency was inconclusive [falling, single point].
In the case of `O=C(NCc1cccnc1)c1cc(-c2ccco2)on1`, the Potency is reported as inconclusive [falling, single point].

From PubChem BioAssay AID485367 (National Center for Advancing Translational Sciences (NCATS), 2010)
Note: nearly all actives have a fitted effect of over 60% in size.
Potency is the fitted concentration of half-maximal effect; tags give direction and shape of the fitted curve.
